Our source for the self-cleavage values is the RNAGym collection of RNA variant scans (doi:10.7554/elife.90254).

The source gives no read counts; variants with many changes may rest on few reads.

The chains are these.
B1: OR4K15 (parent)
chain: GUUAACGGUCAUAGGCCAUGGAAACUAGGAGCACCAUUUCGCUGCCAGUGAAGAAAUGAACAAAGAAAAUCUGGGCCAGGCAGGCAUCAAAAGAAAUAGUCUUGCGCUCAACCAGAAAGUCUGUAAUCAUUUUAAGGGUA

This data set covers variants of B1. Nature of the data set: self-cleavage, relative activity (ratio to wild type); higher = more cleavage; in vitro, sequencing; the parent is a self-cleaving ribozyme.
Take U38C A114G A118G A135G: the self-cleavage is 0.53.
The value for U37C C61A A63G A96G U122A U124A was 0.46.
The value for U39A A111G G138U was 0.02; that for U39C A52G A63G was 1.81; that for U37C A82U A140G was 0.11.
With U37C A82G G106A, the self-cleavage was found to be 0.01.
The value for U39A A47U A56G A60G A66U A111G was 0.02; that for U37C U102C U133C was 1.86; that for U39A U87A A114G was 0.71.
The value for U38C U103C U120C was 0.37; that for U37C G84C A95G was 0.78.
On to U38C U49C U72G C112U, for which the self-cleavage was determined as 0.01.
The result for U37C U38C A68G A86U A117G reads 2.21.
The value for U38G U70C A78U A140U was 0.11; that for U38C G74A A78G U108C was 0.02.
The result for U39A A96G U131C reads 1.08.
For the variant U38C A62U A117G C121U, the self-cleavage is 2.17.
For the variant U37C A68G U72C A90G, the self-cleavage was 0.05.
In the case of U38A A91U A96U U100C A111G A126G U132C, the self-cleavage amounted to 0.
The value for U39C A55G U72C was 0.16; that for U37C A111G A118G was 0.01; that for U38A C42U U87C A114G A117G was 0.35.
As to U39C A51G G58A, the self-cleavage amounted to 0.76.
The value for U38C A117G U133A was 2.25; that for U39C A55G A114U was 0.02; that for U37C A95G A116G was 0.59.
For the variant U38C C45U A51G A82U A90G, the self-cleavage is 0.17.
The value for U38C U49C A90G was 1.92; that for U38C U87C A89G A94G was 2.98.
In the case of U38C A47U U132C, the self-cleavage was determined as 1.14.
Turning to U38C U39A U103G, the self-cleavage amounted to 0.02.
Turning to U38C A54G A110U A118G, the self-cleavage was determined as 0.96.
The value for U39A A55G A67G was 1.24; that for U39C A59G U70C was 0.24.
The value for U39A U43A A91G A96U A111G was 0.03; that for U38C A59G A86G was 1.61.
The value for U39A U122C U139A was 1.35.
With U39A A62G A90G, the self-cleavage stood at 0.79.
The value for U38C A82G A111G was 0.01.
With U38C A55G U102A, the self-cleavage was 0.38.
Turning to U38C U108C U132C, the self-cleavage was 0.01.
In the case of U39C A47G A54U, the self-cleavage stood at 1.4.
The value for U38C A59G U70G was 0.9; that for U39A U108C A126U was 0.03; that for U38C A59G U108C was 0.04.
On to U39A A59G A69U A82G A140U, for which the self-cleavage turned out to be 0.23.
The value for U38G A96G G138A was 0.84.
Regarding U39C A52G A60U, the self-cleavage was determined as 1.27.
For the variant U37C A117G A135G, the self-cleavage was found to be 1.54.
In the case of U38C A55G A68G G119U, the self-cleavage was determined as 1.71.
With U39A A54G C105U U130C, the self-cleavage came out at 0.19.
As for U39A G83U U87A A96G U103C U139C, the self-cleavage was determined as 0.07.
As to U37G A91G A98U, the self-cleavage was 1.23.
U38C A60G A68G U70A U132A: the self-cleavage was found to be 0.68.
The result for U39C A47U A95G U122C reads 1.45.
In the case of U38C A60G A117G, the self-cleavage came out at 1.33.
The value for U37C G75A U130C was 0.12; that for U39C A52G A111G was 0.02.
U37C A92C U108C: the self-cleavage worked out at 0.01.
The value for U39C A59G A118G was 0.45.
Turning to U37C G41C G58A A82C, the self-cleavage came out at 0.26.
For U38C A59G U103A C109A, the self-cleavage came to 0.14.
Consider U38C C71A A94G, for which the self-cleavage worked out at 0.97.
The value for U39C A52G U130C was 1.12.
As to U38C A86G A140G, the self-cleavage came to 1.69.
The result for U38G U39A A134G reads 1.07.
As to U38A U100C A114G, the self-cleavage came to 1.93.
For the variant U38C U70C A111G, the self-cleavage was determined as 0.01.
The result for U38C U49C U127C reads 0.2; that for U38A A67G U100G G106A A125G, 0.
With U39C A60G A96G C105A, the self-cleavage turned out to be 0.05.
The value for U37C C61U A68U G99A was 0.82; that for U39A A59U A62C A82G A94G U132C was 0.35.
The result for U38C A62G A114G reads 0.32.
The value for U37C C40U A60G U70A was 0.57; that for U38C A114U U139C was 0.24.
On to U38C A90U A96G, for which the self-cleavage was 2.44.
The result for U39A U100A A118U reads 0.28; that for U39C A60G A64G A69G A110G, 0.07; that for U38A A89G A91G U100C, 2.55.
The value for U39A A66U A68G was 1.27.
The value for U39A A67G A68G U108C was 0.03.
In the case of U37C U49C U70C A78U, the self-cleavage was found to be 0.23.
The value for U38A U57C A86G U133G was 1.06.
The value for U39C A52G U72C was 0.34.
The result for U39A A116G U139C reads 0.19; that for U37G U57C U102C, 2.29; that for U39A A69U A94C A95U, 1.31.
Take U38C A62G U108C: the self-cleavage turned out to be 0.04.
The value for U39A A59C A62U A114U was 0.02.
U37C U57C U72A: the self-cleavage was 0.24.
The result for U38C U43C U108C U139A reads 0.02.
As for U37C U72C A91G U130C, the self-cleavage is 0.06.
The result for U38C U100C C112A U124C reads 0.
The result for U39C A52G A78U U103C reads 0.14; that for U37C A94G A126G A135G, 0.56; that for U38C A66G A111U A117G, 0.08.
The result for U37C U38G G74A G83A reads 0.22; that for U38C A47G U70A A117G, 0.74; that for U37C A69G U124C, 0.2.
For U38C A110G A111G U132C, the self-cleavage came out at 0.01.
As to U38A U43A A69G U70C, the self-cleavage stood at 0.14.
Consider U39A A92G U108A A110U, for which the self-cleavage was found to be 0.01.
On to U38C G75C A95G U103C, for which the self-cleavage was determined as 0.08.
Take U37C U87G A98U: the self-cleavage was 0.92.
In the case of U38C A59G A110G, the self-cleavage is 0.24.
On to U39C A62U A69G U100C, for which the self-cleavage came to 2.84.
The value for U37C C40U U87A A114G A125G was 0.11; that for U38C A66G G80A A110G was 0.02.
Consider U37C U39C A64G A86G U122G U131A, for which the self-cleavage was 2.15.
The value for U39C A52G A134G was 1.34; that for U38C G48A A56G A62G A66G was 0.93.
The result for U37C A66G A68G U127C reads 1.29.
As to U38C U43C A63G A117G C121G, the self-cleavage turned out to be 2.51.
The value for U37C A66G U130C was 2.16.
U37C U43C A47G: the self-cleavage is 1.68.
On to U39A A56G A98G U120C, for which the self-cleavage is 0.33.
The value for U38C U49G A69G U100C was 1.22; that for U38A U72C A118G was 0.21; that for U37C A78U C88A was 0.43.
The value for U37C U49C A54G A82G U97C was 0.47; that for U39A U70C U87C was 1.22.
Consider U38C A54G A117U, for which the self-cleavage was 1.25.
U38C A95G A125G: the self-cleavage came to 0.5.
The value for U39C A59U A86G A94G was 1.55.
The result for U37C U87C A135G reads 1.33.
The result for U38C G74A U108C reads 0.01.
As to U38C U39C A47G A92G, the self-cleavage worked out at 1.04.
Consider U38C A62U A89G A98C, for which the self-cleavage was found to be 2.07.
Take U37C A126G U130C: the self-cleavage was 1.12.
The value for U39A U57C A60G A62G A66G A96G U120G was 0.11; that for U38C U49A A63G was 1.24.
U38C A55C A111U G136A: the self-cleavage is 0.11.
For the variant U38C U72A A135U G137A, the self-cleavage was found to be 0.37.
The result for U37C U49C A111G reads 0.03; that for U38C A67G A82G A117G U130C, 0.4; that for U37C A114G A118G, 0.05.
As to U37C A92G U102C A114G A126G U130C, the self-cleavage was determined as 0.1.
Consider U37C A116G U120C, for which the self-cleavage came to 0.36.
In the case of U38C C81U A125U, the self-cleavage was determined as 0.44.
The result for U38A A59C A62G A118G U132C reads 1.08; that for U37C U72A U87C A89G A91G A92G, 0.05; that for U39A U43A A110C, 0.31.
With U37C C45A A55G, the self-cleavage turned out to be 1.45.
For the variant U38G A64G A66G U72A A91G U130C, the self-cleavage stood at 0.17.
The result for U37C U39A A60U U87C A110U reads 1.75; that for U37G C107U U108A U127C, 0.
The value for U38C A89G A125G was 0.51.
The result for U39C A55G A62C reads 0.5; that for U39A U57C A63G G73A A111G, 0.02; that for U38A U39A A69G C76U A117G, 0.07.
Turning to U38C U72A U108G A129U, the self-cleavage was found to be 0.01.
With U38C U39C U139C, the self-cleavage came to 1.81.
As for U38C U100C A116G, the self-cleavage is 1.23.
The value for U39C A55G A68G A95C A126G U131C was 0.84; that for U38C A68G C128U was 0.9; that for U37C U38C A82U U103C U122A was 0.04.
The result for U38C A91G A96U A129G reads 0.78; that for U39C A62U A140G, 2.43; that for U38C C40A A95G, 2.47.
As for U37C G53U A117G, the self-cleavage stood at 1.86.
The result for U38C A78U A92U U139C A140U reads 0.32; that for U38C A98U A116G U132C, 0.89; that for U37C C46U U87C, 1.48.
The result for U39C A55G A91G A111G reads 0.03.
In the case of U38C A56G A64G A67G A118G U127C, the self-cleavage is 0.35.
The result for U37C G44U A55U C61U A62U U70A A118G reads 0.97.
